{"source": "paper PMC4336329", "about": "(PLoS ONE, 2015)", "note": "The campaign covered roughly 310,000 compounds. About 2,200 (0.71%) showed an effect of 50% or more. Effects have a minus sign here. This is one part of the list."}
{"target": "human ether-à-go-go-related gene (hERG) potassium channel (human, UniProt Q12809)", "sequence (Q12809 whole entry, looked up)": "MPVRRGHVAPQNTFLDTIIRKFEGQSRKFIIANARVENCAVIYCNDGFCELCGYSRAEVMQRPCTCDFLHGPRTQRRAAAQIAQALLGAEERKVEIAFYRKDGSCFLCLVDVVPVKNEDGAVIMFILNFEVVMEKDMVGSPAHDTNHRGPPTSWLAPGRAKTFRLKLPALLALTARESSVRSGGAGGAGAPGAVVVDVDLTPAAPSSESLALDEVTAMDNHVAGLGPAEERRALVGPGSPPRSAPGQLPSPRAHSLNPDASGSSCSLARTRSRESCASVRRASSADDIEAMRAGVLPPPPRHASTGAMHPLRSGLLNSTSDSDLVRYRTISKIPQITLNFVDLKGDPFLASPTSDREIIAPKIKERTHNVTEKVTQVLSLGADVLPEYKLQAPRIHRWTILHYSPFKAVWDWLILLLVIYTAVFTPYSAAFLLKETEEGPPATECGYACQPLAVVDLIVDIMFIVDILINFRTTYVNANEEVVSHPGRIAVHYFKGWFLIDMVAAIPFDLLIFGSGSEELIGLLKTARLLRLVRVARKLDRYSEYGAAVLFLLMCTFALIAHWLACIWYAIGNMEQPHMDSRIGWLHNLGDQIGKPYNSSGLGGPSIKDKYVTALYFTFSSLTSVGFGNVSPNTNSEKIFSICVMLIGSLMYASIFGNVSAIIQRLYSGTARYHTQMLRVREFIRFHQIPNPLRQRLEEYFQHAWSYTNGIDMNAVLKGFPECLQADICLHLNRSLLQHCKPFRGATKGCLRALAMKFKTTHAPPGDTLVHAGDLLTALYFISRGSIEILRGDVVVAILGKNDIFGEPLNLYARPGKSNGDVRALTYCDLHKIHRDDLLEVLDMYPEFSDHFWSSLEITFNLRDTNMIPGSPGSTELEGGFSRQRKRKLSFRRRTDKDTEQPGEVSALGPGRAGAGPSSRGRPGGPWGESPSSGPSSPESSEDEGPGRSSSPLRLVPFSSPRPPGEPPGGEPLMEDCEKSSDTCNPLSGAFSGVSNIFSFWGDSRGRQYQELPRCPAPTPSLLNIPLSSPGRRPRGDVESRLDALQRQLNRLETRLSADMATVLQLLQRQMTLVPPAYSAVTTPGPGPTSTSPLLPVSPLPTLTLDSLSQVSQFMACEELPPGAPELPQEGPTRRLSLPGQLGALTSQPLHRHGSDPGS", "assay": "primary screen, population patch clamp on CHO cells stably expressing hERG", "units": {"hERG current change (%, negative = inhibition) at 1uM": "%"}}
{"smiles": "COc1ccc(-c2noc(CCCC(=O)Nc3cccnc3)n2)cc1OC", "hERG current change (%, negative = inhibition) at 1uM": 11.3}
{"smiles": "O=C(Nc1cccc(F)c1)/C(=C\\c1ccco1)NC(=O)c1cccs1", "hERG current change (%, negative = inhibition) at 1uM": 0.665}
{"smiles": "CCCCCOC(=O)Nc1ccc(S(=O)(=O)Nc2cccc([N+](=O)[O-])c2)cc1", "hERG current change (%, negative = inhibition) at 1uM": 0.755}
{"smiles": "CCC(=O)N1CCc2cc(S(=O)(=O)CCC(=O)Nc3ccc(C)c(F)c3)ccc21", "hERG current change (%, negative = inhibition) at 1uM": -0.0505}
{"smiles": "CCOC(=O)c1cc(NC(=O)COc2ccc([N+](=O)[O-])cc2)cc(C(=O)OCC)c1", "hERG current change (%, negative = inhibition) at 1uM": 2.75}
{"smiles": "O=S(=O)(c1ccccc1)c1nc(NCc2cccnc2)sc1Cl", "hERG current change (%, negative = inhibition) at 1uM": -0.577}
{"smiles": "Clc1ccc(Cl)c(-c2nn3c(Cn4cnc5ccccc54)nnc3s2)c1", "hERG current change (%, negative = inhibition) at 1uM": 14}
{"smiles": "CC(C)CCOc1cccc(OCC(=O)NC2CCS(=O)(=O)C2)c1", "note": "(centres unmarked)", "hERG current change (%, negative = inhibition) at 1uM": 3.43}
{"smiles": "COc1ccc(/C(C)=N/N2CCOCC2)c(O)c1", "hERG current change (%, negative = inhibition) at 1uM": 12.1}
{"smiles": "O=C(CC1NCCNC1=O)Nc1ccc2c(c1)OCO2", "note": "(centres unmarked)", "hERG current change (%, negative = inhibition) at 1uM": 0.851}
{"smiles": "CCn1c(SCC(=O)c2cc(OC)ccc2OC)nnc1C1CC1", "hERG current change (%, negative = inhibition) at 1uM": 11.3}
{"smiles": "CC1Oc2ccccc2C=C1/C=N/NC(=O)c1ccccc1O", "note": "(centres unmarked)", "hERG current change (%, negative = inhibition) at 1uM": 0.935}
{"smiles": "CC(C)c1ccccc1NC(=S)N1CCN(S(=O)(=O)c2cccs2)CC1", "hERG current change (%, negative = inhibition) at 1uM": 11.9}
{"smiles": "CCOC(=O)c1cnc(SCc2nc(N)nc(Nc3ccccc3)n2)nc1N", "hERG current change (%, negative = inhibition) at 1uM": 12}
{"smiles": "Cc1cccc(C)c1OCCCCc1c(C)n[nH]c1C", "hERG current change (%, negative = inhibition) at 1uM": 1.05}
{"smiles": "COC(=O)CN1C(=O)C(O)(CC(=O)c2cccc(Br)c2)c2ccccc21", "note": "(centres unmarked)", "hERG current change (%, negative = inhibition) at 1uM": 10.7}
{"smiles": "CC1(C)CC(O)(CNCc2ccc3c(c2)OCO3)CCO1", "note": "(centres unmarked)", "hERG current change (%, negative = inhibition) at 1uM": 8.72}
{"smiles": "CCOC(=O)c1ccccc1NS(=O)(=O)c1ccc(OCC)cc1", "hERG current change (%, negative = inhibition) at 1uM": 8.33}
{"smiles": "CCN(CC#CCC1(O)c2ccccc2-c2ccccc21)CCO", "hERG current change (%, negative = inhibition) at 1uM": 11.6}
{"smiles": "CC(=O)N1c2ccccc2C2CCCC[C@@H]21", "note": "(some centres unmarked)", "hERG current change (%, negative = inhibition) at 1uM": 14.2}
{"smiles": "Cc1ccc(C(=O)COC(=O)CCC(=O)Nc2ccccc2Cl)cc1[N+](=O)[O-]", "hERG current change (%, negative = inhibition) at 1uM": 8.32}
{"smiles": "Cc1cc(=O)oc2c(C)c(OCC(=O)N3CC[C@@]4(O)CCCC[C@H]4C3)ccc12", "hERG current change (%, negative = inhibition) at 1uM": 3.58}
{"smiles": "N#CC1=C(N)Oc2n[nH]c(-c3ccc(F)cc3)c2C1c1cccc(OC(=O)N2CCOCC2)c1", "note": "(centres unmarked)", "hERG current change (%, negative = inhibition) at 1uM": 5.82}
{"smiles": "Cc1ccc(S(=O)(=O)NNC(=O)c2ccoc2C)cc1", "hERG current change (%, negative = inhibition) at 1uM": -5.97}
{"smiles": "CCN1CCN(c2cc(N3CCN(C(=O)c4ccco4)CC3)c3c4c(onc24)-c2ccccc2C3=O)CC1", "hERG current change (%, negative = inhibition) at 1uM": 9.64}
{"smiles": "CC(=O)NC1=NN(C(C)=O)C(c2ccc(F)cc2)S1", "note": "(centres unmarked)", "hERG current change (%, negative = inhibition) at 1uM": 9.21}
{"smiles": "O=C(CSc1nc2nn(-c3ccccc3)c(=O)c-2c2n1CCCCC2)c1ccc(O)c(O)c1", "hERG current change (%, negative = inhibition) at 1uM": 1.24}
{"smiles": "CSCCC(NC(=O)c1ccc(=O)n(C)n1)c1nc2ccccc2[nH]1", "note": "(centres unmarked)", "hERG current change (%, negative = inhibition) at 1uM": -11}
{"smiles": "CC1(C)OC(=O)C(=CNc2ccccc2)C(=O)O1", "hERG current change (%, negative = inhibition) at 1uM": 2.21}
{"smiles": "CCN(CC)CC(=O)NC1CC(C)(C)Cc2c1cnn2-c1ccc(F)cc1", "note": "(centres unmarked)", "hERG current change (%, negative = inhibition) at 1uM": 16.2}
{"smiles": "O=C(NCCCN1CCCC1=O)c1ccc2c(=O)n(Cc3ccco3)c(=S)[nH]c2c1", "hERG current change (%, negative = inhibition) at 1uM": 1.88}
{"smiles": "Cc1cc(/C=N/NC(=O)C(=O)NCc2ccccn2)c(C)n1-c1cccc(Br)c1", "hERG current change (%, negative = inhibition) at 1uM": 3.67}
{"smiles": "CN(CC(=O)N1CCN(c2ccccc2)CC1)C1CCCc2ccccc21", "note": "(centres unmarked)", "hERG current change (%, negative = inhibition) at 1uM": 5.75}
{"smiles": "COC(=O)c1cc(S(=O)(=O)N2CCCC(C)C2)cn1C", "note": "(centres unmarked)", "hERG current change (%, negative = inhibition) at 1uM": -5.67}
{"smiles": "COC(=O)[C@@H](NC(=O)O[C@@H]1C(=O)c2ccc(OC)cc2O[C@H]1c1cccc(C(F)(F)F)c1)C(C)C", "hERG current change (%, negative = inhibition) at 1uM": 15.9}
{"smiles": "COc1ccccc1N(C)S(=O)(=O)c1ccc(C(=O)OCC(=O)NCC(F)(F)F)cc1", "hERG current change (%, negative = inhibition) at 1uM": 7.93}
{"smiles": "COC(=O)/C=C/c1ccccc1S(=O)(=O)N(Cc1ccccc1)Cc1ccco1", "hERG current change (%, negative = inhibition) at 1uM": 6.83}
{"smiles": "O=C1C2C3C=CC(C2C(=O)N1CCCO)C1C2C(=O)N(CCCO)C(=O)C2C31", "note": "(centres unmarked)", "hERG current change (%, negative = inhibition) at 1uM": 24.7}
{"smiles": "CC1=C(C(=O)Nc2ccccc2C)C(c2ccc(C)o2)C2=C(CCCC2=O)N1", "note": "(centres unmarked)", "hERG current change (%, negative = inhibition) at 1uM": 12.9}
{"smiles": "Cc1cc(NC(=O)c2ccc(Cl)cc2)no1", "hERG current change (%, negative = inhibition) at 1uM": 10.4}
{"smiles": "COc1cccc(CN(C)CC(=O)Nc2ccccc2N2CCOCC2)c1OC", "hERG current change (%, negative = inhibition) at 1uM": 9.88}
{"smiles": "CCN(CC(=O)NCc1cccs1)CC(=O)Nc1c(Cl)ccc(C)c1Cl", "hERG current change (%, negative = inhibition) at 1uM": -1.97}
{"smiles": "COc1ccc(NC(=S)NC2CCCCC2)c(OC)c1", "hERG current change (%, negative = inhibition) at 1uM": -3.22}
{"smiles": "CCOC(=O)c1ccc(-n2ccnc2)c(NC(=O)c2ccc(C(C)(C)C)cc2)c1", "hERG current change (%, negative = inhibition) at 1uM": -1.35}
{"smiles": "Cc1ccc(S(=O)(=O)Oc2cccc(N3C(=O)C4CC=CCC4C3=O)c2)cc1", "note": "(centres unmarked)", "hERG current change (%, negative = inhibition) at 1uM": -5.12}
{"smiles": "COC(=O)CN(c1cccc(C)c1)S(=O)(=O)c1ccccc1", "hERG current change (%, negative = inhibition) at 1uM": -18.5}
{"smiles": "CC1CCCN(CCC(=O)Nc2ccc(Br)cc2)C1.Cl", "note": "(centres unmarked)", "hERG current change (%, negative = inhibition) at 1uM": -22.8}
{"smiles": "CC(=O)N1c2c(cc(Br)cc2S(=O)(=O)NCC2COc3ccccc3O2)CC1C", "note": "(centres unmarked)", "hERG current change (%, negative = inhibition) at 1uM": 2.24}
{"smiles": "CC(CCc1ccccc1)NC(=O)CN1CCc2ccccc2C1", "note": "(centres unmarked)", "hERG current change (%, negative = inhibition) at 1uM": 6.79}
{"smiles": "CCn1ncc([N+](=O)[O-])c1C(=O)Nc1c(C)nn(Cc2ccc(F)cc2)c1C", "hERG current change (%, negative = inhibition) at 1uM": -20.6}
{"smiles": "Cc1ccccc1C(=O)NC1CCSC1=O", "note": "(centres unmarked)", "hERG current change (%, negative = inhibition) at 1uM": -7.66}
{"smiles": "CCC(C)(C(=O)NC1CCCCC1)N(C(=O)CNC(=O)c1ccccc1)c1c(C)n(C)n(-c2ccccc2)c1=O", "note": "(centres unmarked)", "hERG current change (%, negative = inhibition) at 1uM": 10.7}
{"smiles": "CC1=NN(c2cccc(Cl)c2)C(=O)C1", "hERG current change (%, negative = inhibition) at 1uM": 5.82}
{"smiles": "CN(Cc1ccccc1)S(=O)(=O)c1cccc2nsnc12", "hERG current change (%, negative = inhibition) at 1uM": -0.741}
{"smiles": "COc1ccc(/C=C2\\SC(=O)N(CC(=O)Nc3cccnc3)C2=O)cc1OC", "hERG current change (%, negative = inhibition) at 1uM": 16.9}
{"smiles": "CCc1ccccc1N(CC(=O)N1CCN(c2ccc(F)cc2)CC1)S(C)(=O)=O", "hERG current change (%, negative = inhibition) at 1uM": 0.124}
